Laboratory results as given in the supplement of paper PMC11417369.
This is one part of the list.

These sequences were tested on PfAP2-HC AP2 domain (GST-tagged) (assay: gcPBM binding intensity (ln(normalized median fluorescence intensity)); higher = stronger DNA binding).
Procedure, shortened: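 Each value is the highest Masliner-normalised natural-log median intensity across replicate spots of either orientation of a probe. The probes were primer-extended double-stranded 36-bp intergenic genomic sequences on an Agilent 4 × 180k array, alongside negative controls, exposed for 1 h to GST-tagged P. falciparum DNA-binding domains expressed in E. coli. Bound protein was picked up with Alexa488 anti-GST antibody and scanned at 488 nm.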

Row | Sequence | gcPBM binding intensity (ln)
1 | AAAAAAAAAAAAATACGTACACAAAAAATTGCAAAG [XGTACX_site5663] | 9.81
2 | AATATATTAAAAAAGCGTACAAGAATTGGAAAATGG [XGTACX_site6576] | 9.83
3 | CATACATAAATATAAACATGCATATATTTTTTTTAT [TGCATGCA_site616] | 9.61
4 | ATTTTAATAAAATATGTACACACATACACCCATATA [CACACA_site8326] | 9.95
5 | TGATATCTTAAGAAATGTACAAAGATATAACCATTT [XGTACX_site1913] | 9.41
6 | TAAATAAAAAAAAATACACACATCTATATAAAATAT [CACACA_site3774] | 9.89
7 | GTATCAAAAGAATACACACACACATACCTATAAATA [CACACA_site7737] | 10.8
8 | AAAGGAAAAAAAGTAGCACACAAATATTTATAATAT [CACACA_site8772] | 10.2
9 | AAAAAAAAAACACACACATGCACATCATATTATATA [TGCATGCA_site133] | 10.2
10 | ATATATTATCAACTTACACACAGAAAAATATAATAA [CACACA_site293] | 9.89
11 | TTTAAAGGTGATAAAACACACGATTTAGAAATGTAT [CACACA_site3161] | 9.9
12 | GATATGTAAATAATATGTACATATTTATATTGTATT [XGTACX_site4052] | 9.76
13 | AAAAAGAATGTGAACACACACATTGAATATAATTTA [CACACA_site1262] | 10.4
14 | TTAATACAAATAAAAAGTACAAGTATCGAACTACTA [XGTACX_site6308] | 9.64
15 | TTTTTAGTAACATATAGTACATATATATATATATGT [XGTACX_site4780] | 9.7
16 | TTATTTTTTCTTCAAATGTGAATTATTCATTTATTT [TGCATGCA_negctrl_site545] | 9.71
17 | ATAATATGAAACTCGTACGAGGTTGTCCCAAATATA [CACACA_negctrl_site1350] | 9.84
18 | TTAAAAAACATTTGAACATGCAATTGTATATGTAGA [TGCATGCA_site334] | 9.62
19 | AAACAAAAGGAAAACATATATATATTAAATGTATAT [CACACA_negctrl_site1663] | 9.75

Row | Sequence | gcPBM binding intensity (ln)
20 | TGAAATTAAATATATACACACATATATATTTATATG [CACACA_site3516] | 9.66
21 | GCAAAATAACAATGTTACACTTATAAAATTGAGGCA [GTGCAC_negctrl_site68] | 9.65
22 | ATTTATATTCCAATATGTACATATTTTCGTATAACC [XGTACX_site8507] | 9.74
23 | TTTTTTTTTCTCCATACACACTTGATAAAACTTTTT [CACACA_site4512] | 9.64
24 | ATTACAAATTCTTTCAGTACATATAAAGAAAAAAAT [XGTACX_site7786] | 9.57
25 | ATTTAGAATGTTCCTACACACCAAATTTAAGGGTGC [CACACA_site5320] | 9.63
26 | ATATATACCTATATTACACACTTCTTATTCTAAGAA [CACACA_site7421] | 9.7
27 | ATTGTTACATAAAATGCACACTTTCAAATATGCTAA [CACACA_site5600] | 9.65
28 | TATACACATATATATAGTACATATATAATTTACTAT [XGTACX_site1849] | 9.76
29 | AGTATTCTAATTTTTAAACACACAAATATAAATAAG [CACACA_site9029] | 9.64
30 | AGGGTTCATATATTAACACACACATACATATTATAT [CACACA_site8959] | 10.1
31 | TTCATATATAATTGTACACACAAAAACGACATTGTG [CACACA_site2074] | 9.78
32 | GGAAATAAAATTAAATGTACGAAAACTCATTAAATT [XGTACX_site4274] | 9.58
33 | TAAATATGAGGGAACACACACATGATATATAAATTC [CACACA_site2400] | 10.1
34 | AAACGGGAGAAATAAAAATAAAAATAATAAAACAAA [XGTACX_negctrl_site586] | 9.67
35 | TATACTCATGGACACACACACATACACAGACATACA [CACACA_site5024] | 10.4
36 | AAATATCAACTCAAATGTACAAATCACAAAAATGTA [XGTACX_site5344] | 9.64
37 | ATATATGATGTATTTGTGCACATATATATATTATTA [GTGCAC_site9471] | 9.78
38 | TAAATAAAAAGACACACACACATATTTATATTTATA [CACACA_site7135] | 10.4

Row | Sequence | gcPBM binding intensity (ln)
39 | ATATTAAAAAGGAAATGTACGTAATGAAGATCAAGT [XGTACX_site3138] | 10
40 | TAAATTGGTGCAAAGTGTACATATATATCTTTCCTA [XGTACX_site5458] | 9.61
41 | GAGAAAAATATATACACACACATAAATATATACATA [CACACA_site1895] | 10.4
42 | AAAATTATTTAGTAAGTGCAAAAAAAAAAAAAAAAA | 9.28
43 | AATTTGATTATAAATTGTACATATATATATTAAAAG [XGTACX_site5461] | 9.67
44 | ATTGTTAAATATAATACACACGTTTTTAAAAATATA [CACACA_site5239] | 9.64
45 | AAAAAAAAAAAACATACACACACATATATATATATA [CACACA_site8452] | 10.7
46 | TAAAAATAAATAAATACATGCACCAAAAATAAATTT [TGCATGCA_site801] | 9.73
47 | ATTGCCATTGTTAATGCATGTAACAATTCAGCTCAT [TGCATGCA_site56] | 9.45
48 | TTGAGAAAAATTAATGGTACACATATTATAAGTATA [XGTACX_site6539] | 9.7
49 | TGTATAACATTTAGGTGTACAATTATATATAATATA [XGTACX_site8131] | 9.57
50 | TAATTGTACACATGCACACACAAATATTATAGATGT [CACACA_site6528] | 10.2
51 | TGACATATTATTAGGTGGTCACGTCTCCACGTCAAG [XGTACX_site7943] | 9.39
52 | AAGAAAAAAAAAAAAACACACATATATTTATTTATA [CACACA_site7042] | 9.63
53 | TATACACATAGACACACACACAAAAAAAAAAAAAAA [CACACA_site6338] | 10.6
54 | GAAAGAAAAAATGATGAATAGAGATCAAATCTATAT [XGTACX_negctrl_site28] | 9.6
55 | TAAAAATTTGATCAAACACACGTTGCATAAATTATA [CACACA_site6040] | 9.73
56 | AGGCTATAATACCATACACACATTTATAAAATAACA [CACACA_site6990] | 9.76
